The supplement of paper PMC6206098
± gives the uncertainty stated by the source. Shown are siRNA guide strands that differ only in the seed, positions 2 to 7.

Assays:
3LL = assay: cell viability relative to siNT1 control; higher = less toxic; conditions: concentration: 10 nM; 96 h; Mus musculus;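 further: Luminescence-based viability of cells reverse transfected in 384-well plates with lipid-complexed siRNAs built on a non-toxic 19mer backbone whose passenger strand carries 2′-O-methyl groups at positions 1 and 2, triplicates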
M565 = assay: cell viability relative to lipid-only control; HeyA8 human ovarian and H460 human lung cancer; M565 mouse liver and 3LL mouse lung cancer; siNT1 is a non-toxic control siRNA; higher = less toxic; conditions: concentration: 10 nM; 96 h; Mus musculus
HeyA8 = assay: as above; conditions: concentration: 10 nM; 96 h; Homo sapiens
H460 = assay: as above; conditions: concentration: 10 nM; 96 h; Homo sapiens
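Wherever cell viability relative to lipid-only control is given: reverse lipid transfection in 384-well plates, in triplicate, of duplexes on a non-toxic 19mer backbone with passenger strand 2′-O-methylated at positions 1 and 2, luminescence viability read-out.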

Sequence	cell viability (3LL) [%]	cell viability (M565) [%]	cell viability (HeyA8) [%]	cell viability (H460) [%]
UAUCCAAACAUGUAAACCAAA	112 ± 6.4	80 ± 4.2	98.2 ± 11	91.4 ± 14
UCUCGCCACAUGUAAACCAAA	77.1 ± 18	49.3 ± 12	76 ± 2.2	40.4 ± 1.9
UCUCAUCACAUGUAAACCAAA	97.6 ± 12	48.1 ± 10	67.3 ± 6.4	36.1 ± 5.3
UGGUUGGACAUGUAAACCAAA	18.4 ± 2.9	18.1 ± 2.3	7.58 ± 0.6	17.3 ± 3.5
UGACGAAACAUGUAAACCAAA	96 ± 13	52.6 ± 12	22.6 ± 1.9	63.4 ± 9.2
UCAUGUUACAUGUAAACCAAA	88.2 ± 15	28.1 ± 7.3	63.4 ± 1.9	45.6 ± 2.7
UGCGGCUACAUGUAAACCAAA	29 ± 7.6	9.86 ± 5.8	9.36 ± 2.5	20.8 ± 1.6
UCAGAGCACAUGUAAACCAAA	41.9 ± 13	59.6 ± 1.2	67.8 ± 2	50.7 ± 2.7
UUCAACUACAUGUAAACCAAA	20.8 ± 3.6	21.9 ± 9.2	39.6 ± 5.8	70.9 ± 10
UAUUGUUACAUGUAAACCAAA	111 ± 15	79.8 ± 11	91.3 ± 12	74.7 ± 3.7
UCCCUGCACAUGUAAACCAAA	15.6 ± 5.9	37.3 ± 4.5	29.1 ± 2.3	33.5 ± 4.7
UGUGGUUACAUGUAAACCAAA	18.7 ± 5.5	64.5 ± 11	60.5 ± 8.3	47.5 ± 1.6
UUGUCCGACAUGUAAACCAAA	59.8 ± 5.7	38.6 ± 2.5	91.8 ± 10	54.5 ± 5.8
UUGCAUCACAUGUAAACCAAA	39.9 ± 3.8	80.6 ± 8.6	28.3 ± 3.9	33.4 ± 3.3
UUGUAAAACAUGUAAACCAAA	99.1 ± 8.8	81.1 ± 18	87 ± 2.6	64.6 ± 5.7
UAAACCGACAUGUAAACCAAA	93.8 ± 8.3	76 ± 11	92.2 ± 21	79.5 ± 26
UAUCUCCACAUGUAAACCAAA	31.4 ± 1.5	48.5 ± 11	44.5 ± 8.3	59.7 ± 3.8
UCCGGGCACAUGUAAACCAAA	9.35 ± 1.8	6.22 ± 1	8.45 ± 1.2	36.4 ± 4.9
UUCCACAACAUGUAAACCAAA	106 ± 17	107 ± 19	96.5 ± 12	32.9 ± 2.5
UUUUGUUACAUGUAAACCAAA	78.6 ± 6.4	109 ± 14	87.6 ± 5.8	66.6 ± 1.6
UGAACGGACAUGUAAACCAAA	60.5 ± 9.2	62.6 ± 5.4	70.4 ± 5.2	58.1 ± 6.3
UUAAUAUACAUGUAAACCAAA	80 ± 14	66.1 ± 8.6	65.8 ± 3.1	59 ± 6.7
UCGACUGACAUGUAAACCAAA	92.6 ± 15	74.5 ± 8.3	82.8 ± 5.5	83.4 ± 9.4
UUUCAUCACAUGUAAACCAAA	81.1 ± 5.1	70.2 ± 2.9	53.9 ± 6.8	30.3 ± 1.6

Sequence	cell viability (3LL) [%]	cell viability (M565) [%]	cell viability (HeyA8) [%]	cell viability (H460) [%]
UUGAACAACAUGUAAACCAAA	79.7 ± 12	90.1 ± 5.8	96.6 ± 9.9	74.7 ± 11
UGGCCUGACAUGUAAACCAAA	72.3 ± 10	48 ± 1.5	30.7 ± 2.1	39.1 ± 4.4
UGUAUAGACAUGUAAACCAAA	86.5 ± 1.7	47 ± 7.4	78.6 ± 3.5	70.6 ± 5.4
UUGUAACACAUGUAAACCAAA	52.5 ± 6	52.6 ± 7.3	80.1 ± 2.7	63.5 ± 11
UAUCUACACAUGUAAACCAAA	83.9 ± 9.7	97.5 ± 3.5	94.3 ± 4.9	61 ± 2.2
UGAGAUAACAUGUAAACCAAA	101 ± 17	32.2 ± 8.3	103 ± 4	96.3 ± 9.4
UUGCUGAACAUGUAAACCAAA	38.4 ± 5.2	29.7 ± 7.5	77.3 ± 1.1	90.4 ± 9.9
UCCAAAGACAUGUAAACCAAA	107 ± 29	91.3 ± 20	95.9 ± 12	69 ± 8.4
UGAUCAGACAUGUAAACCAAA	70.7 ± 14	24.6 ± 10	50.4 ± 3.3	45.7 ± 5.8
UUAUGUUACAUGUAAACCAAA	29 ± 6	33.9 ± 4.3	51.4 ± 4	55 ± 9.9
UUAAGCCACAUGUAAACCAAA	6.94 ± 0.38	34.9 ± 6	52 ± 6.5	44.6 ± 4.5
UGUACUCACAUGUAAACCAAA	55.1 ± 22	44.4 ± 7.4	27.8 ± 10	87.9 ± 14
UAAGCUCACAUGUAAACCAAA	43.7 ± 6.9	60.1 ± 3.3	76.8 ± 7.5	68.2 ± 7.7
UGUACCAACAUGUAAACCAAA	68.4 ± 5.5	69.2 ± 9.8	89.1 ± 2.5	77 ± 6.4
UCUGAACACAUGUAAACCAAA	94.5 ± 14	71.1 ± 12	68.4 ± 1.9	65.1 ± 9.2
UGGCCCCACAUGUAAACCAAA	10.8 ± 3.6	21.3 ± 7.6	31.4 ± 3.7	36.4 ± 2
UAUUUUUACAUGUAAACCAAA	107 ± 21	112 ± 28	89.5 ± 14	73.6 ± 4.8
UAUAGAAACAUGUAAACCAAA	110 ± 9.6	93.7 ± 6.6	106 ± 3	82.4 ± 20
UAUACCUACAUGUAAACCAAA	63.7 ± 15	101 ± 14	72.6 ± 4.9	65.2 ± 8.3
UUAUGAGACAUGUAAACCAAA	58 ± 0.87	86.1 ± 26	33 ± 4.7	37 ± 6.6
UGUUCUAACAUGUAAACCAAA	96.4 ± 6.4	36.2 ± 4.7	86.6 ± 5.5	61.8 ± 4.8
UUUUUCGACAUGUAAACCAAA	95.1 ± 6	99.7 ± 13	90.3 ± 8.6	62.9 ± 3.6
UCCUAGUACAUGUAAACCAAA	32.5 ± 5.7	40.1 ± 11	53.5 ± 6.9	51.5 ± 4.5
UGUUCCUACAUGUAAACCAAA	23.1 ± 7.8	23.2 ± 1.3	8.94 ± 1	41.5 ± 10
